From article PMC4336329 (PLoS ONE, 2015)
Screen size: about 310,000 compounds; about 14,000 (4.5%) showed an effect of 50% or more. The effect is printed as a negative number. The list shows a part of the results.

Molecular target: human ether-à-go-go-related gene (hERG) potassium channel (human, UniProt Q12809)
Assay: primary screen, population patch clamp on CHO cells stably expressing hERG
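Note: peak tail current of the secondary pulse compared with the same well before compound.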

Sequence of human ether-à-go-go-related gene (hERG) potassium channel (Q12809 whole entry, looked up): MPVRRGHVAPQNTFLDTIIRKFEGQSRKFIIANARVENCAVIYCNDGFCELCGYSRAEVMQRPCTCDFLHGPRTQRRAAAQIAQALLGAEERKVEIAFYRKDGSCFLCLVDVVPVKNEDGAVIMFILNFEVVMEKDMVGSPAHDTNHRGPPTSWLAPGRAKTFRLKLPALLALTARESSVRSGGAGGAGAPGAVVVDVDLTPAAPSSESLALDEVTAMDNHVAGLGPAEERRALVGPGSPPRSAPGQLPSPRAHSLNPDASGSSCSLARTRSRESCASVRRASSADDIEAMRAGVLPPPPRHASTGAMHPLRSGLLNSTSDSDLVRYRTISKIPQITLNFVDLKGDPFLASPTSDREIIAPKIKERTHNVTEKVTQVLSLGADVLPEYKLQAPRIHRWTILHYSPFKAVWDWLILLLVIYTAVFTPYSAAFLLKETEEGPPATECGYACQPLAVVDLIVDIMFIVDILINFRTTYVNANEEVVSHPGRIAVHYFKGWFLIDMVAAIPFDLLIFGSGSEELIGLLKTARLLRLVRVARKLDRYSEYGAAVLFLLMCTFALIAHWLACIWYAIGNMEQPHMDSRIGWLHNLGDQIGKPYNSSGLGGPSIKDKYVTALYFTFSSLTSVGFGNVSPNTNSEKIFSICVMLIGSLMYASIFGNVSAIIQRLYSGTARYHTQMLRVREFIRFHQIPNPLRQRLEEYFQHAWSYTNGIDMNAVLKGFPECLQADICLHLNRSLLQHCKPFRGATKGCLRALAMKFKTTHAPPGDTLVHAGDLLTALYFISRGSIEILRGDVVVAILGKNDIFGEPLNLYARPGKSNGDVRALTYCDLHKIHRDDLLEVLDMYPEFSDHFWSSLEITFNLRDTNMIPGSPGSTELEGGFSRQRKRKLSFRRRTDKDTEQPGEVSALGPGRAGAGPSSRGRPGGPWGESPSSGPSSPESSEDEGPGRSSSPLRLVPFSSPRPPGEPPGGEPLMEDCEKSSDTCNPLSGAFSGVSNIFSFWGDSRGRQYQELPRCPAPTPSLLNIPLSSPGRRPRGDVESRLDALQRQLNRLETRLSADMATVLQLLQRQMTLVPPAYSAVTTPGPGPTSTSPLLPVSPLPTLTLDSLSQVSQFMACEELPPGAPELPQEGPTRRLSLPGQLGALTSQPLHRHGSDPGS

| SMILES | hERG current change (%, negative = inhibition) at 10uM [%] |
| --- | --- |
| O=C(CCn1nnc(-c2cccs2)n1)NC1CCCCC1 | 2.79 |
| CCOc1ccc(Nc2ncnc3ccc([N+](=O)[O-])cc23)cc1 | 1.23 |
| COc1cc(-c2nnc(SCC3(c4ccccc4)OCCO3)o2)cc(OC)c1OC | -9.14 |
| CCNC(=O)C(Cc1ccccc1)NC(=O)OCc1ccccc1 (stereo not shown) | 8.4 |
| Clc1ccccc1-c1ccc(CN2CCN(c3ccccc3)CC2)o1 | 0.453 |
| CCS(=O)(=O)N1Cc2ccccc2CC1C(=O)Nc1ccc(F)c(F)c1 (stereo not shown) | -7.59 |
| CCC(C)NC(=O)Nc1ccc2c(c1)N(C)C(=O)c1ccccc1S2 (stereo not shown) | -12.2 |
| CCCCC(=O)OCC(=O)Nc1ccc(OC(F)F)cc1 | -21.2 |
| C[C@@H](C(=O)NCc1ccc(S(C)(=O)=O)cc1)[C@H]1C[C@]1(C)[C@H](NC(=O)OCc1ccccc1)c1ccccc1 | -35.4 |
| CCN(CC)c1ncnc2c1ncn2Cc1c(Cl)cccc1Cl | 2.93 |
| Nc1c(Cl)cc(C2=NCCn3nc4cc(C(F)(F)F)ccc4c32)cc1Cl | 6.72 |
| COc1ccccc1C(=O)Nc1nnc(SCC(=O)NCc2ccco2)s1 | 4.4 |
| Cc1ccc(S(=O)(=O)N2CCCN(S(=O)(=O)c3ccc(C)c(C)c3)CC2)cc1C | 3.64 |
| CCOC(=O)C1CCN(C(=O)COC(=O)CNC(=O)c2ccc(OC)cc2)CC1 | 5.52 |
| O=C(CSc1cccc[n+]1[O-])c1ccc(-c2ccccc2)cc1 | -3.84 |
| O=S(=O)(NCCOc1ccccc1)c1ccc2ccccc2c1 | 14 |
| C=C1[C@@H](OC(C)=O)[C@]23C[C@@H]1[C@@H](OC(C)=O)CC2[C@]12C4C[C@H]3[C@H]1N(CC)C[C@]4(C)CC[C@@H]2O (stereo partly shown) | -40.6 |
| Cc1ccc([N+](=O)[O-])c(OCCCN2CCC(Cc3ccccc3)CC2)c1.O=C(O)C(=O)O | -89.6 |
| FC(F)(F)c1ccccc1CCN1CCNCC1 | 20.9 |
| Cc1nnc(SCC(=O)NCc2ccccc2)[nH]c1=O | -7.09 |
| NC(=O)c1c(NC(=O)C(=O)N2CCOCC2)sc2c1CCCC2 | 14.3 |
| Cc1ccc(C)c(S(=O)(=O)NCc2ccc(C(=O)N3CCCCC3C)cc2)c1 (stereo not shown) | -6.16 |

| SMILES | hERG current change (%, negative = inhibition) at 10uM [%] |
| --- | --- |
| CN(c1cccc(NC(=O)COc2ccc(Cl)cc2Cl)c1)S(C)(=O)=O | 0.0208 |
| Cc1ccc(CNC(=O)c2ccc3c(c2)NC(=O)CS3)cc1 | -12.2 |
| N#C/C(=C\c1cn(CCOc2ccccc2)c2ccccc12)C(=O)NCc1cccs1 | 0.688 |
| CS(=O)(=O)c1ccc(Oc2ccc(-c3nnco3)cc2)c([N+](=O)[O-])c1 | -7.35 |
| CC(C)(C)C(=O)NCCc1nc2ccccc2n1CC(=O)c1ccc(Cl)cc1 | -33.2 |
| Cc1ccc(NC(NC(=O)c2ccccn2)C(Cl)(Cl)Cl)cc1 (stereo not shown) | -26.2 |
| CCN(CC)S(=O)(=O)c1cc(C(=O)n2cccn2)c(Cl)cc1Cl | -2.45 |
| CNC(=S)NNC(=O)c1ccc(=O)n(Cc2cccc(C(F)(F)F)c2)c1 | 17.2 |
| O=C(c1ccccc1-c1nc2ccccc2[nH]1)N1CCCCC1 | 5.53 |
| COc1cccc(C(=O)Nc2cc(S(=O)(=O)N3CCCCC3)ccc2OC)c1 | -13.6 |
| COCCCNC(=O)CSc1nc2ccccc2c(=O)n1CCCC(=O)NCC1CCCO1 (stereo not shown) | -0.988 |
| CCn1c(N2CCN(C(=O)/C=C/c3ccccc3)CC2)nc2ccccc21 | -80.8 |
| CC1=C[C@@H](C)[C@@H](c2ccc(C(F)(F)F)cc2)OC1=O | 7.01 |
| CCN(CC)CCCNC(=O)c1nn(-c2cccc(OC)c2)c(=O)c2ccccc12 | -70.6 |
| Nc1ccc(S(=O)(=O)c2ccc(N)cc2)cc1 | 6.8 |
| CC(Sc1nc2ccccc2s1)C(=O)NC1CCCc2ccccc21 (stereo not shown) | -21.9 |
| CS(=O)(=O)N1CCc2nc(-c3ccccc3)sc2C1 | -25.7 |
| CCCNS(=O)(=O)c1ccc(CCC(=O)Nc2ccc3c(c2)OCCO3)cc1 | -7.35 |
| S=c1[nH]nc(-c2cccnc2)o1 | 18.1 |
| CCOC(=O)c1ccc(N2C(=O)CC(Nc3ccc(CCO)cc3)C2=O)cc1 (stereo not shown) | -25.5 |
| O=C(O)CN1C(=O)/C(=C\c2ccc(OC(=O)c3ccco3)cc2)SC1=S | 5.73 |
| CSCCC(=O)N1CCCC(CNC(=O)c2ccc(-c3ccccc3)cc2)C1 (stereo not shown) | -73.2 |

| SMILES | hERG current change (%, negative = inhibition) at 10uM [%] |
| --- | --- |
| CCC(=O)N1c2ccc(S(=O)(=O)N3CCN(CC)CC3)cc2CC1C (stereo not shown) | 16.7 |
| CCCN(CC(=O)Nc1ccccc1C)C(=O)CSc1ccccc1C | 7.42 |
| Cc1ccc(SCCN2CCC(C)CCC2=O)cc1 (stereo not shown) | -25.6 |
| COc1ccccc1/C=C/C(=O)Nc1nc(N)n(-c2ccccc2)n1 | -33.8 |
| O=C(CCc1ccccc1)NCCc1nc2ccccc2[nH]1 | 28.7 |
| CCN1CCN(C(=S)NCCOC)CC1.O=C(O)C(=O)O | 16.2 |
| O=C1C(=O)N(CCO)C(c2ccccc2)/C1=C(\O)c1ccccc1 (stereo not shown) | 8.55 |
| CC(=O)Nc1ccc(C(=O)N(C2=NC(C)CS2)c2ccc(Cl)cc2)cc1 (stereo not shown) | -7.39 |
| CCOc1ccc(S(=O)(=O)N(C)CC(=O)NCCN2CCOCC2)cc1 | 13.9 |
| CCCCOC(=O)c1ccc(NC(=O)C(=O)NCc2ccco2)cc1 | 13.2 |
| CC(OC(=O)Cc1ccccc1[N+](=O)[O-])C(=O)NC(=O)NC1CCCCC1 (stereo not shown) | -10.8 |
| CCOc1cnc(-c2ccc(Cl)cc2)o1 | 8.82 |
| CCN1CCCC1Cn1cnc2c([nH]c3ccc(OC)cc32)c1=O (stereo not shown) | -66.1 |
| O=C(CCS(=O)(=O)c1cccc2nonc12)NCc1ccc(Cl)cc1 | -22.5 |
| Cc1cccc(C)c1NC(=O)CNC(=O)C(C)N1CCN(c2cccc(Cl)c2)CC1 (stereo not shown) | -18.4 |
| COC(=O)c1ccc2c(=O)n(Cc3ccc(C(=O)NC4CCCC4)cc3)c(=S)[nH]c2c1 | -5.49 |
| COc1ccc(C(c2nnnn2CC2CCCO2)N2CCN(c3ccccc3)CC2)cc1 (stereo not shown) | -2.14 |
| COC(=O)c1cc(NC(=O)c2cccs2)ccc1N1CCOCC1 | -1.74 |
| COC(=O)NN=C1CCC(c2ccccc2)CC1 (stereo not shown) | 5.89 |
| O=C(COC(=O)c1ccc(Br)o1)NCCCc1ccccc1 | 2.15 |
| N/C(=N\OC(=O)c1ccco1)c1ccc(Br)cc1 | 2.19 |
| COc1cc(CN2CCSCC2)cc(OC)c1OC | -5.22 |

| SMILES | hERG current change (%, negative = inhibition) at 10uM [%] |
| --- | --- |
| O=C1c2ccccc2C(=O)N1Nc1ccccc1 | -2.11 |
| CCN(CC)S(=O)(=O)c1ccc(C)c(NC(=O)/C=C/c2cccs2)c1 | -6.14 |
| COc1cc(C2N(c3cccc(Cl)c3)C(=O)C3CCCN32)cc(OC)c1OC (stereo not shown) | -1.48 |
| CN1C2CCC1CC(NC(=O)CSc1ccc(Cl)cc1)C2 (stereo not shown) | -8.94 |
| COc1ccc(CNS(=O)(=O)c2ccc3c(c2)C(C)(C)C(=O)N3C)cc1 | 5.42 |
| CCOC(=O)N1CCN(Cc2nc(-c3ccc(C)cc3)no2)CC1 | -17.6 |
| Nc1ncnc2c1ncn2C1O[C@H](CO)[C@@H](O)[C@@H]1O (stereo partly shown) | -8.74 |
| Cc1c(Cl)cccc1NC(=O)CNc1ccccc1F | -3.99 |
| Cc1ccc(C(=O)Nc2nccs2)cc1S(=O)(=O)N1CCCCC1 | -10.2 |
| CC(C)CCNC(=O)C(Cc1ccccc1)NS(=O)(=O)c1ccc2c(c1)c(=O)n(C)c(=O)n2C (stereo not shown) | -17.9 |
| Clc1ccc(Cn2cc(/C=N/n3cnnc3)c3ccccc32)c(Cl)c1 | 12.7 |
| CCOC(=O)c1ccc(NC(=O)CN2C(=O)CN(C(C)=O)C2=S)cc1 | 2.08 |
| COc1ccc([C@@H]2[C@@H]3C(=O)N(C(C)(C)C)C(=O)[C@@H]3[C@]3(Cc4ccccc4)C(=O)N(c4cccc(Cl)c4)C(=O)N23)cc1 | 6.35 |
| S=C(NCc1ccccc1)N1CCc2ccccc2C1 | -1.63 |
| Cc1ccc(S(=O)(=O)N2CCCCC2)cc1NC(=O)COC(=O)C1(C)CC1(Cl)Cl (stereo not shown) | -26 |
| CC[C@H](C)NC(=O)CCCCCn1c(=S)[nH]c2c([nH]c3ccc(OC)cc32)c1=O | 71.9 |
| CCC(C)C(NC(N)=O)C(=O)NC1CCC(C)CC1 (stereo not shown) | -4.7 |
| O=C(COc1ccc(Cl)cc1Cl)Nc1ccccn1 | -2.68 |
| COc1ccc(N2CCN(c3nc(NCCO)nc(N4CCOCC4)n3)CC2)cc1 | -1.07 |
| Cc1ccc(COc2ccc(Br)cc2/C=N/O)cc1 | 4.32 |
| O=C(NNC1=NCCCCC1)c1cccc([N+](=O)[O-])c1 | 4.78 |
| CCCCC(CC)C1OCC(CN2CCCC2)O1 (stereo not shown) | 3.29 |
